# In all, about 310,000 compounds went through this assay and about 14,000 (4.5%) showed an effect of 50% or more. Effects have a minus sign here. The list shows a part of the results.
# Molecular target: human ether-à-go-go-related gene (hERG) potassium channel (human, UniProt Q12809)
# Assay: primary screen, population patch clamp on CHO cells stably expressing hERG
# 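Further: peak tail current of the secondary pulse compared with the same well before compound.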
# human ether-à-go-go-related gene (hERG) potassium channel, sequence (Q12809 whole entry, looked up): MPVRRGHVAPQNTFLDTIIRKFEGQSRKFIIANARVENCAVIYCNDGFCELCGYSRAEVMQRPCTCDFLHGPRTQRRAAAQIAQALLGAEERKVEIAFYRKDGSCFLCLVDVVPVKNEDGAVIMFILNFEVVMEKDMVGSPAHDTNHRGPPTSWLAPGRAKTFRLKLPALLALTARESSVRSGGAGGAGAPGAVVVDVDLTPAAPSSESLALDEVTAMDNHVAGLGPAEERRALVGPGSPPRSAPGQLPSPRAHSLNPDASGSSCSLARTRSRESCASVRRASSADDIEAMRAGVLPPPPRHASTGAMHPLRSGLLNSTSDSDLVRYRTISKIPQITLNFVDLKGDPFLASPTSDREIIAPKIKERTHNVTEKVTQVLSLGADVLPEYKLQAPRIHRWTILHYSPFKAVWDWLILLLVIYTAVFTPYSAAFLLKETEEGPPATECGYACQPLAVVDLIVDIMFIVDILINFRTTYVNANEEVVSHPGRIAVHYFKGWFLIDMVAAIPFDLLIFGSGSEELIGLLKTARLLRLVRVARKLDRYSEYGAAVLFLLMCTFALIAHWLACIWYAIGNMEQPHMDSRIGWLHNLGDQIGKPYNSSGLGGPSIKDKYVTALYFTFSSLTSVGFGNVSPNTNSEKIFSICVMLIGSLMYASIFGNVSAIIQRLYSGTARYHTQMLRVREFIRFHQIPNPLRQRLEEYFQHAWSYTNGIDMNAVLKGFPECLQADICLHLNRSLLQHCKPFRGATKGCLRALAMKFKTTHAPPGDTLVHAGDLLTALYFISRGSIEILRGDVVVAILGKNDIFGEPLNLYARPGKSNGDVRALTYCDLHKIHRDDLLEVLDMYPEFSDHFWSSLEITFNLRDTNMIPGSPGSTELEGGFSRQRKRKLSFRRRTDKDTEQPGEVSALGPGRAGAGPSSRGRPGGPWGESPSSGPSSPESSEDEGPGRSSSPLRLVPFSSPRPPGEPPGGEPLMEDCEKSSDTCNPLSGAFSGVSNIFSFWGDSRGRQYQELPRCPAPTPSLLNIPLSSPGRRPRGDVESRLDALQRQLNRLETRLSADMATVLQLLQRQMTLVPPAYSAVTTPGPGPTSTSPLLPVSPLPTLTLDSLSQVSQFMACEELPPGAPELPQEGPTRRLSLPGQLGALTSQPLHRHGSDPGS
row,SMILES,"hERG current change (%, negative = inhibition) at 10uM"
1,CC(C)c1ccc(OCC(=O)NC(=S)Nc2ccc3c4c(cccc24)CC3)cc1,-3.9%
2,Cc1oc2cc(OC(C)C(=O)O)ccc2c(=O)c1Oc1ccccc1 (stereo not drawn),15.5%
3,Cc1cccc[n+]1CC(=O)N1c2ccccc2Sc2ccccc21.[Cl-],18.7%
4,CCC(NC(=O)c1ccc2nc(Cc3ccc(OC)cc3)oc2c1)c1ccncc1 (stereo not drawn),-9.99%
5,COc1ccc(C(=O)C2CCN(CC(=O)Nc3cc(C)cc(C)c3)CC2)cc1,-65.2%
6,CCOC(=O)c1c(N2C(=O)CC(Sc3ccccc3C(=O)O)C2=O)sc2c1CCCC2 (stereo not drawn),27.9%
7,CCOC(=O)CNC(=S)N(CCCN1CCN(C)CC1)Cc1cccs1,-43.5%
8,COc1ccc(CC(=O)n2c(CC#N)nc3ccccc32)cc1OC,14%
9,Cc1nn(-c2ccccc2)nc1CNC(=O)c1ncoc1-c1ccccc1,-13.1%
10,CNC(=O)N(O)C1N(/N=C/c2ccccc2F)C(=S)SC1(C)C (stereo not drawn),9.61%
11,COC(=O)Cn1c2ccc(Cl)cc2c2nc(C)sc21,5.43%
12,O=C(N/N=C/c1cc2c(cc1Br)OCO2)c1ccccn1,22.6%
13,Cc1cc(Cl)ccc1NC(=O)C1CCCN1C(=O)c1cccs1 (stereo not drawn),24.9%
14,COC(=O)C(C)NS(=O)(=O)c1ccc(NC(C)=O)cc1 (stereo not drawn),-2.68%
15,Nc1nc(Nc2cccc(Cl)c2)n[nH]1,9.19%
16,COC(=O)C1=CO[C@@H](C)[C@@H]2CN3CC[C@@]4(C(=O)Nc5ccccc54)[C@@H]3C[C@H]12,-0.647%
17,COc1ccc(Cl)cc1N1C(=O)CC(N2CCc3ccccc32)C1=O (stereo not drawn),-11%
18,CCOc1ccc(Br)cc1C(=O)Nc1ccc(C(=O)NCC(C)C)cc1,-10.5%
19,COc1ccc(-n2c(SCC(=O)NCC3CCCO3)nc3c([nH]c4ccccc43)c2=O)cc1 (stereo not drawn),20.3%
20,C=CCN1C2CCCC1CC(NC(=S)Nc1ccc(Cl)cc1)C2 (stereo not drawn),-39.8%
21,CCOC(=O)c1ccc(NC(=S)Nc2ccc(Br)cc2N)cc1,20.6%
22,O=C(COc1ccc2ccc(=O)oc2c1)N1CCC(C(=O)O)(c2ccccc2)CC1,15.3%
23,Cc1ccc(Oc2nc3ccccn3c(=O)c2/C=C(\C#N)C(=O)Nc2c(C)n(C)n(-c3ccccc3)c2=O)c(C)c1,7.18%

row,SMILES,"hERG current change (%, negative = inhibition) at 10uM"
1,O=c1ccc2ccc(Oc3ccc([N+](=O)[O-])cc3Cl)cc2o1,5.54%
2,COc1ccc(S(=O)(=O)NC(C)C(=O)NCc2ccccn2)cc1Cl (stereo not drawn),7.6%
3,CCOc1ccc(CCNC(=O)C2CCCN(S(=O)(=O)c3c(C)n[nH]c3C)C2)cc1OCC (stereo not drawn),3.3%
4,O=C(CCCN1C(=O)C2C3C=CC(C3)C2C1=O)N1CCN(c2ccccc2)CC1 (stereo not drawn),-16.6%
5,CCn1c2ccccc2c2cc(NC(=O)CSc3nnc(-c4ccccc4)o3)ccc21,3.65%
6,O=C(O)c1cc(OCc2ccccc2)cc(OCc2ccccc2)c1,10.8%
7,Cc1ccc(OCC(=O)Nc2ccccc2C(=O)NC2CC2)cc1,2.02%
8,O=C(O)c1ccc(Cl)c(S(=O)(=O)Nc2cccc(C(=O)Nc3cccc(C(F)(F)F)c3)c2)c1,16.4%
9,COc1ccccc1OCCNc1nc2c(c(=O)n(C)c(=O)n2C)n1C,-2.23%
10,CCOC(=O)C1=C(O)/C(=C/c2ccccn2)SC1=Nc1ccc(Cl)cc1,10.5%
11,O=C(CCNC(=O)N1CC(=O)Nc2ccccc21)Nc1ccc(Br)cc1F,19.5%
12,Cn1c(C2CCCCC2)nc2cc(N)ccc21,11.2%
13,Cc1ccc(S(=O)(=O)Nc2cccc(C(=O)NCC3CCCO3)c2)cc1F (stereo not drawn),2.12%
14,COc1ccc(CN(C)CCc2ccccn2)cc1OC.O=C(O)C(=O)O,-5.06%
15,CCc1ccc2oc(-c3cc(N)ccc3Cl)nc2c1,13.5%
16,O=C(CCc1c[nH]c2ccccc12)NCC1COc2ccccc2O1 (stereo not drawn),3%
17,COCCNC(=O)CC(NS(=O)(=O)c1ccc(NC(C)=O)cc1)C(C)C (stereo not drawn),-4.3%
18,Cc1cc(Nc2ccc(Br)cc2F)n2nc(C)nc2n1,-21.5%
19,CCc1ccccc1NC(=O)C1CCCN(S(=O)(=O)c2c(C)noc2C)C1 (stereo not drawn),19.9%
20,Cc1cc(Oc2ccccc2)nc(SCC(=O)Nc2ccc(Cl)cc2Cl)n1,-2.17%
21,CCOc1ccc(N2CC(C(=O)Nc3nnc(Cc4ccccc4)s3)CC2=O)cc1 (stereo not drawn),4.73%
22,C#CCN(C(=O)c1cc(COc2cccc(C(F)(F)F)c2)on1)C1CCCCC1,6.88%

# From publication PMC4336329 (PLoS ONE, 2015)
